Reference: PMC3824705
Results are given in words; binding and its absence hold for the method and conditions named. In cells and extracts the contact can be indirect. Some entries that bind do so weakly or less than the wild type. Where a sequence is shown, tags or fusion partners need not be part of it.

Amino acid sequences for entries named in this document (tags omitted).
UniProt Q13257: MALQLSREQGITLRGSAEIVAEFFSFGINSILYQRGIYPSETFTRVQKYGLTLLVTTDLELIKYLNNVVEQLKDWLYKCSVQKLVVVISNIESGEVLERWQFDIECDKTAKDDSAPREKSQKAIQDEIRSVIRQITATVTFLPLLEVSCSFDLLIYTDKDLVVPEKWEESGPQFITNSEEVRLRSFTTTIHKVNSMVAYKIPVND

How the values were obtained:
Assay in all cases: co-IP; extracts of HeLa cells overexpressing EGFP or EGFP-tagged p31^comet constructs (adenovirus); NP-40 lysis buffer (50 mM Hepes pH 7.4, 250 mM NaCl, 1% NP-40); anti-GFP antibody on agarose beads, 4 h at 4°C; western blotting with anti-Mad2 and anti-GFP antibodies
[1] = molecular target: T1, EGFP-tagged p31^comet fragment C (81-274) (human) (UniProt Q15013)
T1 sequence: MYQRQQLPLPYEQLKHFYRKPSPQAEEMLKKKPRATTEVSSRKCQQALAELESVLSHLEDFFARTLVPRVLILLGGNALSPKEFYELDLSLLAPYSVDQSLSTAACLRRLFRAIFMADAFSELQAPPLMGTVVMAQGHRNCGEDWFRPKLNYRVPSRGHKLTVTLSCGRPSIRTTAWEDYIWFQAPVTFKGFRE

[2] = molecular target: T2, EGFP-tagged p31^comet fragment B (55-274) (human) (UniProt Q15013)
T2 sequence: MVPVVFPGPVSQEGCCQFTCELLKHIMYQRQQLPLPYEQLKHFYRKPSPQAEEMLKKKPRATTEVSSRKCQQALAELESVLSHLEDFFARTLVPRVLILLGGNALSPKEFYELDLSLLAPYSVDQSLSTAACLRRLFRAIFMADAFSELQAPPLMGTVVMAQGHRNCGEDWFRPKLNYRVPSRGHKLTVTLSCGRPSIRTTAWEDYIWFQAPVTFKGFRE

[3] = molecular target: T3, EGFP-tagged p31^comet fragment D (108-274) (human) (UniProt Q15013)
T3 sequence: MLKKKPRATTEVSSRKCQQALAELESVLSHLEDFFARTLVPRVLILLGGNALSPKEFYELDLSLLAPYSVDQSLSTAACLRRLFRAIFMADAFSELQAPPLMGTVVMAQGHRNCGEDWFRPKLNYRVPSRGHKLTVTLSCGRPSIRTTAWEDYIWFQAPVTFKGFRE

[4] = molecular target: T4, EGFP-tagged p31^comet fragment A (31-274) (human) (UniProt Q15013)
T4 sequence: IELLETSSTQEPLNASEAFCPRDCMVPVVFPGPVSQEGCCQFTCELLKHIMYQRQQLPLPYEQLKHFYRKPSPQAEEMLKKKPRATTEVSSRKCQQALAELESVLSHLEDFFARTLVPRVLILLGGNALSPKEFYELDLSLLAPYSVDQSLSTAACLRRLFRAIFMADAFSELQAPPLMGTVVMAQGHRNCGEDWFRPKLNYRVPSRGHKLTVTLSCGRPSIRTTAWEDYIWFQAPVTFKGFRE

[5] = molecular target: T5, EGFP-tagged full-length p31^comet (human) (UniProt Q15013)
T5 sequence: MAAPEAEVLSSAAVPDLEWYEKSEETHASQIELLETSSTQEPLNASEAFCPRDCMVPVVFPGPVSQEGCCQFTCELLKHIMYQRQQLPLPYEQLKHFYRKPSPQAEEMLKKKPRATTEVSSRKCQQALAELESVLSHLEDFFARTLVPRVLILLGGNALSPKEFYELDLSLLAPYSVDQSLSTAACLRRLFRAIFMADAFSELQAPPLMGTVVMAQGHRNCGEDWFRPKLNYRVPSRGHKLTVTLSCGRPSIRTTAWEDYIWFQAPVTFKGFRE

binding [1]: no binding
binding [2]: binds
binding [3]: no binding
binding [4]: binds
binding [5]: binds
Substance: Mad2 protein (from UniProt Q13257 1-205)
